This is an account of results in ChEMBL document CHEMBL4888484, “Replenishing the malaria drug discovery pipeline: Screening and hit evaluation of the MMV Hit Generation Library 1 (HGL1) against asexual blood stage Plasmodium falciparum ,using a nano luciferase reporter read-out” (2022).

The structures appear in SMILES notation. Screen size: about 150,000 compounds; about 540 (0.36%) showed an effect of 50% or more. The list shows a part of the results.

In the experiment the test system is Plasmodium falciparum. The experiment in a line: Primary screen in NF54 nanoGlo assay, in single point, at 2uM, 72h; a lower Z score goes with more inhibition. Type of experiment: functional, Erythrocyte. As to conditions: timepoint 72 hour.
The % Inhibition is the change of the read-out against control, counted positive when it falls. `COc1ccc(C2c3cnn(C(C)(C)C)c3NC3=NC(=O)N(c4ccc(Cl)cc4)C32)cc1O` (centres undefined): the “% Inhibition” value is -2% and the Z score is 0.26.
On the same counts, the results for `O=C(NCc1ccccc1)N1C[C@H]2CC[C@@H](C1)N(CC1CCC1)C2=O` are 8% and -1.19.
For the molecule `CC[C@H]1C[C@@H]1C(=O)NCC1Cc2ccccc2C1`, the “% Inhibition” value is listed as -9% and the Z score is 1.75.
The matching figures for `Cc1ccc(NS(=O)(=O)c2cc(-c3cc(C(F)(F)F)on3)sc2C)cc1C`: 3% and -0.44.
As for `COc1ccc(N2CCN(C(=O)CCC3=Nc4ccccc4S(=O)(=O)N3)CC2)cc1`, the “% Inhibition” value is recorded as -2% and the Z score turned out to be 0.28.
As to `Cc1csc(CN(C)C(=O)c2ccc(Nc3ccncc3)cc2)n1`, the “% Inhibition” value is reported as 3% and the Z score is -0.4.
`C[C@@H]1CN(C[C@@H]2CN(C(=O)c3ccc4c(c3)OCO4)C[C@@H]2CO)C[C@H](C)O1`: the “% Inhibition” value is reported as -8% and the Z score amounted to 0.95.
In the case of `O=C(NC(c1ccccc1)[C@H]1C[C@@H](O)C1)C1CCN(C2CCCC2)CC1` (some centres undefined), the “% Inhibition” value worked out at 4% and the Z score is -0.53.
The matching figures for `CCN1c2ccc(F)cc2C(=O)NC12CCN(C(=O)c1ccc(F)c(Cl)c1)CC2`: 3% and -0.39.
The matching figures for `CC(=O)N(c1nn(CN2CCC(Cc3ccccc3)CC2)c(=S)s1)C1CC1`: 4% and -0.71.
On the same counts, the results for `O=C(Nc1ccc(N2CCCCC2)cc1)c1cccc(S(=O)(=O)N2CCCc3ccccc32)c1` are -5% and 0.84.
As for `CN(C)CCCn1ccnc1C1CCN(C(=O)N(C)c2ccccc2)CC1`, the “% Inhibition” value is on record as -7% and the Z score turned out to be 0.67.
In the case of `CCn1c(=O)c(-c2noc(C(=O)N3CCN(C)CC3)n2)nn(-c2ccc(F)cc2)c1=O`, the “% Inhibition” value is given as -11% and the Z score is listed as 2.04.
For the molecule `CCc1nc2cc(N)cc(C(=O)N(C)Cc3nccs3)c2n1CCCOC`, the “% Inhibition” value is -9% and the Z score was 1.65.
On the same counts, the results for `Cc1[nH]c2c(-c3c(C#N)c(N)nc4c3CNCC4)cccc2c1C` are -6% and 1.09.
On the same counts, the results for `C[C@@H](c1ncc(C(C)(C)C)o1)N1CCC(NC(=O)c2ccc[nH]2)CC1` are 6% and -0.88.
On the same counts, the results for `O=C(NC(c1ccccc1)c1ccccc1F)NC(c1ccccc1)c1ccccc1F` (centres undefined) are -8% and 1.15.
Consider `CCCCn1nnnc1CN1CCCC(C2(C)NC(=O)NC2=O)C1` (centres undefined), for which the “% Inhibition” value is listed as -4% and the Z score was 0.68.
As to `CCOCC1(CNC(=O)CC(=O)Nc2cc(Cl)ccc2C)CCC1`, the “% Inhibition” value was -4% and the Z score stood at 0.54.
The matching figures for `CC(C)C(=O)N(CC1CN(Cc2ccco2)CC1c1cccc(F)c1)C(C)C` (centres undefined): -3% and 0.44.
Consider `CC(C)c1nnc(N2CC[C@H](O)CC(C)(C)C2)s1`, for which the “% Inhibition” value is given as -9% and the Z score is 1.39.
The matching figures for `CS(=O)(=O)Nc1ccc(-c2noc(C3(C#N)CCCC3)n2)cc1`: -12% and 1.66.
On the same counts, the results for `Cc1nn(C[C@H]2COc3ccccc3O2)c(=O)n1C` are -7% and 1.11.
On the same counts, the results for `Cc1nnnn1CCC(=O)N[C@H]1CC[C@@H]2CCC[C@@H]21` are -7% and 0.73.
As for `CC1CCCC1(C#N)NC(=O)c1cnc2c(c1)ncn2C` (centres undefined), the “% Inhibition” value is listed as -16% and the Z score was found to be 2.37.
The matching figures for `Cc1ccc(N(Cc2ccccc2)C(=O)c2cc(S(=O)(=O)N3CCOCC3)ccc2F)cc1`: 0% and -0.02.
Take `Cc1ccc(C)c(NC(=O)Cn2cnc(-c3noc(-c4ccc(F)cc4)n3)c2)c1`: the “% Inhibition” value is -5% and the Z score is on record as 0.65.
The matching figures for `COC(=O)c1n[nH]cc1-c1cc(-c2cccc(O)c2)nc(N)c1C#N`: 4% and -0.36.
The matching figures for `C=C(C)CNC(=O)NCc1cn(C)nc1CC`: -12% and 1.24.
On the same counts, the results for `COc1ccc(C(=O)N2CC(=O)N(CC3CC3)C3(CCCCC3)C2)c(C)c1` are -6% and 0.97.
In the case of `CC(C)c1noc(N2CC3C(C2)C3(C)C)n1` (centres undefined), the “% Inhibition” value is listed as -12% and the Z score is 1.98.
On the same counts, the results for `O=C(NCc1ccccc1F)c1nc(-c2cnccn2)no1` are -9% and 1.3.
With `CC(NC(=O)C1CC1c1ccco1)C(O)c1c(F)cccc1Cl` (centres undefined), the “% Inhibition” value was -16% and the Z score worked out at 2.24.
On the same counts, the results for `CC(C)c1ccccc1NC(=O)Cn1c(=O)n(CCc2cccs2)c(=O)c2sccc21` are 5% and -0.78.
The matching figures for `CCn1c(CN2CC[C@@]3(CCCN(C(=O)CCOC)C3)C2)nc2ccccc21`: -7% and 1.5.
The matching figures for `COC[C@]1(C)NC(=O)N(Cc2csc(C3CCCC3)n2)C1=O`: -9% and 1.14.
Consider `C[C@]1(CO)CCCN(CCc2ccncc2)C1`, for which the “% Inhibition” value is -3% and the Z score was determined as 0.36.
On to `CCOC(=O)CN(CC(C)C)C(=O)Cn1cnnn1`, for which the “% Inhibition” value was -4% and the Z score turned out to be 0.71.
On to `CC(C)c1nnsc1CNc1cc(N2CCN(C)CC2)nc(N)n1`, for which the “% Inhibition” value stood at 5% and the Z score is -0.91.
The matching figures for `CC(C)NC(=O)[C@H](Cc1ccccc1)NC(=O)c1cccnc1`: -5% and 0.55.
Regarding `CCCc1ccc(CN2CCN(C(=O)NCC)[C@H]3CS(=O)(=O)C[C@H]32)o1`, the “% Inhibition” value is -2% and the Z score turned out to be 0.42.
On the same counts, the results for `O=C1[C@@H]2C[C@H](O)CCN2C(=O)CN1Cc1n[nH]c2c1CCCCC2` are -9% and 1.79.
